Some of the results follow.
T1: UNK ZnF1-3 (human, UniProt Q9C0B0 31-174)
T1 sequence: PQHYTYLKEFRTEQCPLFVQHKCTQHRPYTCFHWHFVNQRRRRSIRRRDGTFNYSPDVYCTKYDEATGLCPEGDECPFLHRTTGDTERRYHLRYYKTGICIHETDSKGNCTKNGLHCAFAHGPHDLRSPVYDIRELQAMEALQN

B1: chr5:180275300:180275301:-_ENSG00000196670_ENST00000512132|hu_hu|motif|central (ssRNA)
RNA: GGGAGUUCUACAGUCCGACGAUCUCAUCAUCACUGCCCCCUCCCAAACCAAUUACAUCAAGUUUAUACUUAAAGACCACGGAUAUUAAAUAAAUUUAUAUUCCCUGAAACCUAUCCUCCCUGAAUUUGCCUGUUGGAGGCCCUCAACAGAGGAUUGAGCAUCA
B2: chr17:60770872:60770873:+_ENSG00000011028_ENST00000303375|hu_hu|hu_hu_hu_mus_True|88_108 (ssRNA)
RNA: GGGAGUUCUACAGUCCGACGAUCUCUCUUUUCUUUUAAAAAAAAAGUUUAAAAACAAUAGCACAUUUCGAGAAUCAAGAACUACAAUAGAGGGUCCGCUUUGAGUUUUUGUUCACAUCGUCCUGCACUGGGACACGGGGACUGCAACAGAGGAUUGAGCAUCA
B3: chr17:48526647:48526648:-_ENSMUSG00000023994_ENSMUST00000046719|mus_hu|FALSE|FALSE (ssRNA)
RNA: GGGAGUUCUACAGUCCGACGAUCGUGGGCUACUAUGGUGUGCCAAAGUGACCACAAGAAAAGGGUCAUGAGCUAUUUGAAAUGCAAUGACAAAAUGACAACUGAAGCAUUUCAAACAAAAUUCAAAGUCAUCUCCCCCCAAAUCAACAGAGGAUUGAGCAUCA
B4: chr2:73467608:73467609:+_ENSG00000135624_ENST00000258091|hu_mus|FALSE|FALSE (ssRNA)
RNA: GGGAGUUCUACAGUCCGACGAUCAUCCUGGGACUUGGCUAUGUCCACUAAAGUCUUUGCUGCAGGAUGGACAACAUCGAGGAGUUUCAGAAUUGUGGCCCCAUCAUUAGAUAUUGUUGCUUUGCCUCGGCCAUCCACAAUAAGCAACAGAGGAUUGAGCAUCA
B5: chr10:19624517:19624518:-_ENSMUSG00000020003_ENSMUST00000020182|mus_hu|FALSE|FALSE (ssRNA)
RNA: GGGAGUUCUACAGUCCGACGAUCUUCGUUGUUCUCACUCCAAGUCACAUCAAACAAACCAUCAUUCCAGUCAAAGCUUCUAAAAAGCCUUAGCCCAGCUUCAUCUGGAUCCAAUAUUAGUAGGGUUCCACAGCCCGCGAUGCCCAACAGAGGAUUGAGCAUCA
B6: chr5:71490416:71490417:+_ENSG00000131711_ENST00000296755|hu_mus|FALSE|FALSE (ssRNA)
RNA: GGGAGUUCUACAGUCCGACGAUCAUACUGCAUUUCCUUGCUGCUUUUGACUGGGUUAAGCACGUACAUCUCAAGCUUGCCCACUCCCAUCUUCUGGAACAGGAUGACAGGCUCAAUGGUAUUGCCUACACUUCUAAAUAGAGGCAACAGAGGAUUGAGCAUCA
B7: chr9:110451649:110451650:+_ENSMUSG00000044791_ENSMUST00000153838|mus_mus|FALSE|FALSE (ssRNA)
RNA: GGGAGUUCUACAGUCCGACGAUCCAUUGAUAUAGCAUCUGUCUUAGAAGUACAAAAUGUUGCCACAUCAGCUUCUGUCUCUGGAGAUCCGUUUACAUUUAAUUCAAUGGAACAAAAAUUUCUUAAUUGAUCAUUUUUCACUUUCAACAGAGGAUUGAGCAUCA
B8: 76251920_76253262_95_CDS_ENSG00000137955_ENST00000319942|human|control|control (ssRNA)
RNA: GGGAGUUCUACAGUCCGACGAUCUGCGAUAUAAUCUGCAUGUUUCUCCAAUAACAAAGUGUCCGGUGCAUCUGACUUGAUAAUAACAUCCUUCUGUGGAGUGCCCAUGUCUAACAGGGAAAGGAGAGAGCAGGGUCAGUUCCUCAACAGAGGAUUGAGCAUCA
B9: chr1:95362928:95362929:-_ENSG00000117519_ENST00000538964|hu_mus|motif|central (ssRNA)
RNA: GGGAGUUCUACAGUCCGACGAUCGACCACAUUUAGCAAAUCAACUUUUUAGUCUUCCACAUACAAGCCAGAUACGUACGGAAACUGUAAAAAAAGGAGAAAAAAUAGUUUCCUAUUGUUCGAAAAUACCAGUUUAUGUGUAAGCAACAGAGGAUUGAGCAUCA
B10: 7443155_7443275_1532_3pUTR_ENSMUSG00000027499_ENSMUST00000028999|mouse|control|control (ssRNA)
RNA: GGGAGUUCUACAGUCCGACGAUCAACAGCAUCAGUAAAAGUGUAGUUGGGUGAUAAUUUUUAUAUCUGAAUGCAAUUCACACAAAUUAUUAGUAAAAUUUUACAAACAUUAAAAAGUGCAUAACAACAUUUGGGUAUGAAAGGCAACAGAGGAUUGAGCAUCA
B11: chrX:149583016:149583017:+_ENSMUSG00000041658_ENSMUST00000039720|mus_mus|motif|central (ssRNA)
RNA: GGGAGUUCUACAGUCCGACGAUCAUUUCCAACAGAGUCUACGAGAGAGUAGGUGCUCAAACUGCUAUUAAUUUGAAGACGGUGUAUACGGUCUAGUAUUGUUGCACCAAGACGACGUGUGUCUCUGGCAAUAUAAUUUGCAAACAACAGAGGAUUGAGCAUCA
B12: 79712232_79715897_320_CDS_ENSMUSG00000020153_ENSMUST00000105364|mouse|control|control (ssRNA)
RNA: GGGAGUUCUACAGUCCGACGAUCCAGGCUCGGGCUUGGGCUCGGGCUCGGGCCCUCAGUGGCUACACUCUGAUGAACUCUGCGCAGCUGGACCUGUGCUGUGCGCAGACCCAGGAUCCGUACAGAGAGCAGGCCAGGAGCCGCCAACAGAGGAUUGAGCAUCA
B13: chr17:13109412:13109413:+_ENSMUSG00000068039_ENSMUST00000151287|mus_hu|FALSE|FALSE (ssRNA)
RNA: GGGAGUUCUACAGUCCGACGAUCCGGUCACCGAACACGGACAAAGGCCCCUCCAUCUUGACGGCAGCGAUACACGUCGAAUUCUGCUUACACCGCGGGCAACCAGUAUCGCGGCCCCUCGGCCGACCGGCGACCACAGCAGUGCAACAGAGGAUUGAGCAUCA
B14: chr2:166767530:166767531:+_ENSMUSG00000002718_ENSMUST00000002790|mus_hu|FALSE|FALSE (ssRNA)
RNA: GGGAGUUCUACAGUCCGACGAUCAAAUAUUUCUUGUAGUGCUAGUGCCCCAUAUUUUAUGCAAUACAAAUUAAUAAAGACUAAAAAACUCUUGAUAAACUUGGUUGUUUUGGAAUUCUGAAGUCUCUGGAAUAGCAGAAUGAACAACAGAGGAUUGAGCAUCA
B15: chr6:38652254:38652255:-_ENSG00000124767_ENST00000373365|hu_hu|hu_hu_hu_mus_False|78_108 (ssRNA)
RNA: GGGAGUUCUACAGUCCGACGAUCCGAAAACUUCAUAGCAGGGAAGUCAAGCUUCUGGAUUAGCGUCAGUCCAAGAACCCUCGUAUAAAAAUCCAGGGACUUCUUAGGAUCCUUAAUUCUUAGCAUCGUUUGCUGCAGUAGAAACAACAGAGGAUUGAGCAUCA
B16: chr5:107067165:107067166:-_ENSMUSG00000049606_ENSMUST00000112696|mus_hu|motif|central (ssRNA)
RNA: GGGAGUUCUACAGUCCGACGAUCAACUGAAGCAGAGGUAGGUAGUUUUUUAUUGGAAUGGGUGGGAUUCUUAGCAUGUGCGGCAUCUGAUAACAAAAAUAAAACUUGGUGUUGACUUGCUUUCUGUGGUGUAGACAGCUGAAGCAACAGAGGAUUGAGCAUCA
B17: 39607422_39609318_1646_3pUTR_ENSG00000078142_ENST00000262039|human|control|control (ssRNA)
RNA: GGGAGUUCUACAGUCCGACGAUCAGAACGCAUAACUCUGACAGACUUAUCACCCUUCAACAAUGCUUGGCUGAAUCUUCUCAUUACGUUCAAGUACAUCUCAUGGGUCUUUGGAUCUCUCUGCUGAGUAUCUUGAUCUUCACACAACAGAGGAUUGAGCAUCA
B18: chr1:224553637:224553638:+_ENSG00000143771_ENST00000366856|hu_hu|FALSE|FALSE (ssRNA)
RNA: GGGAGUUCUACAGUCCGACGAUCUCGAUAUAUAUUCCAAGUGGCAACAGGUAAGUUGAGAAGGAAGAUGAACCAGUGCAAUGACAUGAGCAGUAAUACAGUGACAAUGGUAUGGCCAAUCAAUUCUGGAAUUACCCACUUGUUCAACAGAGGAUUGAGCAUCA
B19: 138055828_138055948_2858_3pUTR_ENSMUSG00000041642_ENSMUST00000075164|mouse|control|control (ssRNA)
RNA: GGGAGUUCUACAGUCCGACGAUCGACUCAGCCUCAGACGAGGUGGUGCUGGCAGACACCUCAGCCCCAGAAUCCAUAUUGGGGGGCUUCAAUCCUACACGCCCAGCCACUCGCUCAGACAUGGGCUUUGCCAGGCGCCUCAGUCAACAGAGGAUUGAGCAUCA
B20: chr19:41088299:41088300:+_ENSG00000160410_ENST00000291842|hu_hu|FALSE|FALSE (ssRNA)
RNA: GGGAGUUCUACAGUCCGACGAUCGACGGCAUUCCACACCCCGAUGCGCCCUGUGUGGCUUGUAGCAAUGAGCUGGUUCCCGACGAAGAACAAGGCCUCCACAGGCACCCCCAGAUGAAAGACCCCUAUCUCGGAGCCACCGCCCAACAGAGGAUUGAGCAUCA
B21: chr4:17488853:17488854:-_ENSG00000151552_ENST00000428702|hu_hu|FALSE|FALSE (ssRNA)
RNA: GGGAGUUCUACAGUCCGACGAUCUAGGCUUCCUGAGCUCGGUCGGUUUUUCCCUGUGAUCCAGUCAUGGAAAGUUUCAACUAGGAAUUCUAAGGGUGUCCAGGAGCUGAAGUCAGCCUCAGGCAUUGAUUUCCUGUUCAUCGGCAACAGAGGAUUGAGCAUCA
B22: chr3:10015032:10015033:+_ENSMUSG00000027533_ENSMUST00000029046|mus_mus|mus_mus_mus_hu_True|28_98 (ssRNA)
RNA: GGGAGUUCUACAGUCCGACGAUCGUUUUUACCAUCACACGUAAUGAUACAAUCUGGCUUGGCCAUUGCGCCCAUUUUUCGCAAAGCUAUUCCCACUCCUAGCUCCUUCAUGUACUCAUCAAAGCCUUUGCUGUCCACCAGGCGCAACAGAGGAUUGAGCAUCA

molecular target: T1, UNK ZnF1-3; test: nsRBNS (natural sequence RNA bind-n-seq); RBNS binding buffer (assumed for nsRBNS): 25 mM Tris pH 7.5, 150 mM KCl, 3 mM MgCl2, 0.01% Triton X-100, 500 ug/ml BSA, 20 U/ml SUPERase-In, 4 C; UNK is unkempt and MSI1 is Musashi-1; names of the RNAs are library labels; protein concentration not given here; high values mean tight binding

Binder	binding signal
B1	1.98 enrichment R
B2	1.29 enrichment R
B3	1.17 enrichment R
B4	0.992 enrichment R
B5	1 enrichment R
B6	0.566 enrichment R
B7	0.661 enrichment R
B8	1.25 enrichment R
B9	0.981 enrichment R
B10	2.36 enrichment R
B11	0.834 enrichment R
B12	0.582 enrichment R
B13	0.798 enrichment R
B14	1.53 enrichment R
B15	1.03 enrichment R
B16	2.65 enrichment R
B17	0.818 enrichment R
B18	1.2 enrichment R
B19	0.672 enrichment R
B20	1.5 enrichment R
B21	0.96 enrichment R
B22	0.657 enrichment R

— PMC12136788
